± gives the standard deviation of the averaged measurements. The list shows a part of the results.
system: PfAP2-G AP2 domain (GST-tagged); assay: gcPBM binding intensity (ln(normalized median fluorescence intensity)); higher = stronger DNA binding
Summary of the method: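 Using an Agilent 4 × 180k array, primer-extended double-stranded 36-bp intergenic genomic probes and negative controls were exposed for 1 h to GST-fused P. falciparum DNA-binding domains expressed in E. coli. Binding was carried out in 1× PBS with 1% milk, 0.2 mg/ml BSA, 0.5% salmon testes DNA and 0.03% Triton X-100, and protein was detected with Alexa488 anti-GST antibody and a 488 nm scan. Binding intensity is the highest Masliner-normalised natural-log median intensity across replicate spots of either probe orientation.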

Sequence | gcPBM binding intensity (ln)
GTAAAATAAATAATATAAATAAAATGAAATGAAACA [TGCATGCA_negctrl_site519] | 9.93 ± 0.057
AAGTTTAAAGGAATTACACAAACAAGCAAATATATA [CACACA_negctrl_site857] | 10.1 ± 0.18
ATTTTCTTAAATAAATGTACATGGCATTAAAAGTAA [XGTACX_site5119] | 11.1 ± 0.58
ATACCATATAATTATGTGAGAAAATATAATATTCAT [CACACA_negctrl_site310] | 9.71 ± 0.2
AAAAAAAAAAAAAATACACACAAATAATAAAAATAA [CACACA_site1431] | 9.88 ± 0.16
TGTACGTTTTTTAACACACACACAAAAAAAAAAAAA [CACACA_site6006] | 10.9 ± 0.68
ATATATATATATGTATGTACATAATATTTTTTTTAT [XGTACX_site5551] | 11.2 ± 0.69
TATTTGTATATTCATTCCTGTATTCCCTTTTTTGTA [CACACA_negctrl_site1236] | 9.94 ± 0.085
ATAATGTCATAATTATATCCTTTGGCATAAAATAAA [XGTACX_negctrl_site574] | 9.84 ± 0.2
CCTAAATAAATGGACACACACATATTTATATTTATA [CACACA_site6789] | 11 ± 0.71
GAATGTAAATATTAAAGTACACAGAATATATCTTCA [XGTACX_site8149] | 11.3 ± 0.75
TATAATATTATATAATGTACGCATTTATTATTTAAA [XGTACX_site8326] | 11.5 ± 1
TTAAATATCCATATTTCACACATTTCGATATATATA [CACACA_site4208] | 9.99 ± 0.21
ACTGTACTATAAAATACACACATATAAATATAAATA [CACACA_site3009] | 11.2 ± 1
TATTTTAGAGAAAAAAATAAATTACAAAATGTTAGG [CACACA_negctrl_site1645] | 9.93 ± 0.2
TTTGAAGGAAGGGGGGGAGGGGCCATAACAAAGGAA [GTGCAC_negctrl_site408] | 11.6 ± 0.86
AAATAAAATCATGAATGTACACAAAAATTATTGCAA [XGTACX_site5691] | 11.3 ± 0.68
ATATACATTTTAAATTTTAATGTAACCCATGGGAGA [CACACA_negctrl_site588] | 10.2 ± 0.2
TGAACCCACAAATCACGTACATATATATACACGTGT [XGTACX_site7739] | 11.4 ± 0.93
TTTAACAACTATTTCTGTACACATTTTTATATAATT [XGTACX_site4917] | 11.5 ± 0.91
TATATACGTAATAGTAGTACTTTAAAATGCGGAAAT [XGTACX_site4597] | 11.5 ± 0.73
TGTACGAGTCGTAGAGTGCAGTCTGGAGAAACGTAC [GTGCAC_site9682] | 11 ± 0.47

Sequence | gcPBM binding intensity (ln)
ATAAATAACTTTTAAATACACACGTAAAATATATTG [CACACA_site3302] | 10.15 ± 0.014
ATTTATATTATGAGGAGTACAATACTTATAGATGTA [XGTACX_site7510] | 11.6 ± 0.98
AAAAAAGATATATAAACACACATATTTATATACACA [CACACA_site6866] | 9.66 ± 0.16
GATAGACACGTGCACACATGCAATACTTTATTCAGT [TGCATGCA_site778] | 10.6 ± 0.29
GTAGTAATAAATCTAGTGCATTATATATAACAAAAA [GTGCAC_site9803] | 10.02 ± 0.049
TTTTTTTCTTTTTTTTGTACTCATACATACTATCAT [XGTACX_site607] | 11.3 ± 0.73
AAAAATGTGCACACGCGTACACACAAAAAAAGAAAA [XGTACX_site4097] | 11.5 ± 0.79
AAAATATATCAAAATAGTACATAATTTTTTAAGAAT [XGTACX_site3515] | 11 ± 0.76
TATATAAAAAATAGGTGGTCAACTTAAATATTTTAT [XGTACX_site4495] | 11.3 ± 0.74
AATAAAGCAATAAATACACACATATATATATATATA [CACACA_site2934] | 10 ± 0.28
TTGCCTTAAAAAGGAACACACATGCTTTTTTTAGTT [CACACA_site938] | 9.99 ± 0.071
AAAAAAAAAAAAAATGCACACATATATTTCCATATA [CACACA_site8416] | 10 ± 0.16
AACTTACTCTTTACAAGTACGTAAAAGAAATAGAAA [XGTACX_site1782] | 11.4 ± 0.8
AGTTATGCATCTTAGGTGCTATGCCCAATTTATTTT [GTGCAC_site9977] | 9.96 ± 0.042
GTATATATACATAAATGTACATATATATAAAAAATG [XGTACX_site3271] | 11 ± 0.61
AATATATAAGTCTACTGTACCCAAAATAAAATTTAT [XGTACX_site8727] | 11.5 ± 0.91
ATATATCCAAATAGATTACATATATATATATAGATA [TGCATGCA_negctrl_site277] | 9.64 ± 0.099
AAATATAATAAAATGACACACGCATATATATATATA [CACACA_site8900] | 10 ± 0.28
AAATAAGAACATAGAATGCACTTTTTTTTTTTTTCC | 10.07 ± 0.057
ATATATTTATATATTGCACACAAAAAAAAAAAAAAA [CACACA_site8468] | 9.98 ± 0.64
AACATTATAAGACACACACACACATATATAAATATA [CACACA_site6622] | 10.2 ± 0.24
TTATGGGACTCAAATACATGCAAAAATATTTTTAAG [TGCATGCA_site559] | 10.5 ± 0.42

Sequence | gcPBM binding intensity (ln)
TAAGGTTAAATAATATGTACATATTATTATATATAT [XGTACX_site6953] | 11.3 ± 0.72
TTAAACCGTGGGAGCACACACACACCCAGACACATA [CACACA_site4337] | 10.4 ± 0.35
AAATATGTATATATATATATATATATATATATATAT [GTGCAC_negctrl_site335] | 9.76 ± 0.47
TATTGCCCTTGACACACACACATATAAATAAATATA [CACACA_site7220] | 10.4 ± 0.42
CACGTGTAAATAGTTTTACAATATCTCGATATGTAT [CACACA_negctrl_site785] | 10.1 ± 0.18
TAATAATCAAACTATACACACATAAATAAATATATA [CACACA_site156] | 9.77 ± 0.014
AAGGAAATAAGAAAAAGTACACATAAGTATATAACA [XGTACX_site1173] | 11.5 ± 0.85
GTAATTATATACATACGTACATACACATATGTATAT [XGTACX_site4149] | 11.3 ± 0.65
GGATATATGAAACATATTGAAAAACCGTTTAGTACA [CACACA_negctrl_site132] | 10.5 ± 0.3
TAATTTTTGTAAACAGTCATGGATTCAAAAAAAAAA [CACACA_negctrl_site593] | 9.97 ± 0.13
TTACTATGTAAACACACATGCAATATATGTTAAGCC [TGCATGCA_site253] | 10 ± 0.18
TTATATGAAAATTATTGTACAATCTATAAAAAAAAT [XGTACX_site4194] | 11 ± 0.66
TTTTATCATATTTATTGTACACATAATATACATATC [XGTACX_site1145] | 11.5 ± 0.9
AATAAATAAATATATACACACATATATCTGTACATA [CACACA_site9034] | 10.9 ± 0.67
AGGAAAAAAAAAATGTGTACTTAAAAAAAAAAAATT [XGTACX_site1471] | 11.6 ± 0.93
TGTATGTTTATTTATCGTACATATATATATATATAT [XGTACX_site7315] | 11 ± 0.61
TTTTATATATTATATACACACATATATATATATATA [CACACA_site2999] | 10.2 ± 0.61
TTTGAATCCTTATATACACACATTATATAATATTAT [CACACA_site4472] | 10.2 ± 0.15
TATATATATATACATTGTACATTATTGATTATAACA [XGTACX_site1678] | 10.7 ± 0.49
CATTTTATAAAAAGCACACATATAGTTATATGCACA [CACACA_site3691] | 10.04 ± 0.071
TAAATTATAATAAATACACACAAATTATAATTCTAT [CACACA_site3942] | 9.88 ± 0.11
ATATATAAAAAATGTGGTACATTCATTTATTATACA [XGTACX_site3495] | 11.2 ± 0.92

Sequence | gcPBM binding intensity (ln)
AAATTAGAATTAGGAACACACATATTTATATTTATA [CACACA_site7450] | 9.82 ± 0.057
TTTATTCTCCGACACACACACATATATTTATTTATA [CACACA_site7377] | 10.2 ± 0.19
ACAAAGTAAAATAATGCATGTAGGTATACATAATTA [TGCATGCA_site607] | 9.88 ± 0.099
AATATTTTATATAAATGTACATTTATGAATAATATA [XGTACX_site8477] | 10.9 ± 0.54
GTGCTAAAAGTATATGCACACACATATATATGCACA [CACACA_site8472] | 10.1 ± 0.16
ACATATTTCCAATAATGTACATACAAAATAAGAATG [XGTACX_site2659] | 11.1 ± 0.61
TAAAAGTAGATATATACACACATAAATATAGATGTA [CACACA_site6457] | 9.775 ± 0.035
TGTTCATTTATTTACTTACACACTTTATATATGTGG [CACACA_site1410] | 10.05 ± 0.049
TAAAAATATATAAACAGTACATAAATTAAATAAATA [XGTACX_site6962] | 10.6 ± 0.3
AAAAATAAAAAGAATTGTACATATAAATCATATACA [XGTACX_site6860] | 10.8 ± 0.54
GACCCAATGAAAAGGTCACACATTTTTTCTTTTCGA [CACACA_site5074] | 10.3 ± 0.19
TATTTTTTTTAGCGTACATGCAAAAAAAAAAAAAAA [TGCATGCA_site555] | 11.4 ± 1.1
GTTTATTTATTTTATGTGCACATATAACAAAAAAAA | 10.7 ± 0.64
GTTAAAATTTGTCAATGTACAGAAATAATAAAAAAA [XGTACX_site1879] | 10.9 ± 0.49
AAAGTTTTTACCAAGTGTACATATATATATATATAT [XGTACX_site5786] | 11.3 ± 0.85
TTTTTTCTTTAATACTCAATATGATAAAAGTAACAC [XGTACX_negctrl_site163] | 10.3 ± 0.34
AAATTATATATATTTACATGCAATATAATGAAATAA [TGCATGCA_site229] | 9.785 ± 0.035
ATAAAATAAAACAGAGCACACATTTTATTTACATTC [CACACA_site696] | 10 ± 0.057
ATATATATATCATATTGTACATATTATTGTATAATC [XGTACX_site5020] | 11 ± 0.47
ATTTTTTTTTTTATAGTGGAACCACATTTGCCATTT [CACACA_negctrl_site1247] | 10.4 ± 0.47
TATTAAATGAAACAAACACACATAGCCTTTAAATAT [CACACA_site1560] | 10 ± 0.099
TTAGGACAAAAAAAAATAAAAATAAAATAAAATAAT [CACACA_negctrl_site1613] | 9.95 ± 0.21
